{"source": "the supplement of paper PMC8728848", "test_in_all_cases": "glycan array binding signal (z-score within array); higher = stronger binding", "settings_in_all_cases": "glycan notation: IUPAC condensed, linker removed", "key": {"Gal(a1-3)GalNAc": {"target": "Gal(a1-3)GalNAc", "method_in_brief": "(§1)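 Columns mapping to the same glycan were averaged after glycan names were converted to IUPAC-condensed notation. The data come from 3228 arrays in the Consortium for Functional Glycomics database, limited to those with an available protein sequence. Binding is reported as a within-array Z-score averaged across arrays of one protein sequence and across linkers.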"}, "[1]": {"target": "Gal(a1-3)[Gal(a1-4)]Gal(b1-4)GlcNAc", "method_in_brief": "as §1"}, "[2]": {"target": "Gal(a1-4)Gal(b1-3)GlcNAc(b1-2)Man(a1-3)[Gal(a1-4)Gal(b1-3)GlcNAc(b1-2)Man(a1-6)]Man(b1-4)GlcNAc(b1-4)GlcNAc", "method_in_brief": "as §1"}, "Gal(a1-4)Gal(b1-4)Glc": {"target": "Gal(a1-4)Gal(b1-4)Glc", "method_in_brief": "as §1"}, "Gal(a1-4)Gal(b1-4)GlcNAc": {"target": "Gal(a1-4)Gal(b1-4)GlcNAc", "method_in_brief": "as §1"}, "[3]": {"target": "Gal(a1-4)Gal(b1-4)GlcNAc(b1-2)Man(a1-3)[Gal(a1-4)Gal(b1-4)GlcNAc(b1-2)Man(a1-6)]Man(b1-4)GlcNAc(b1-4)GlcNAc", "method_in_brief": "as §1"}, "[4]": {"target": "Gal(a1-4)Gal(b1-4)GlcNAc(b1-3)Gal(b1-4)Glc", "method_in_brief": "as §1"}, "Gal(a1-4)GlcNAc": {"target": "Gal(a1-4)GlcNAc", "method_in_brief": "as §1"}, "Gal(a1-6)Glc": {"target": "Gal(a1-6)Glc", "method_in_brief": "as §1"}, "Gal(b1-2)Gal": {"target": "Gal(b1-2)Gal", "method_in_brief": "as §1"}, "Gal(b1-3)Gal": {"target": "Gal(b1-3)Gal", "method_in_brief": "as §1"}, "Gal(b1-3)Gal(b1-4)GlcNAc": {"target": "Gal(b1-3)Gal(b1-4)GlcNAc", "method_in_brief": "as §1"}, "Gal(b1-3)GalNAc": {"target": "Gal(b1-3)GalNAc", "method_in_brief": "as §1"}, "[5]": {"target": "Gal(b1-3)GalNAc(a1-3)[Fuc(a1-2)]Gal(b1-4)Glc", "method_in_brief": "as §1"}, "[6]": {"target": "Gal(b1-3)GalNAc(a1-3)[Fuc(a1-2)]Gal(b1-4)GlcNAc", "method_in_brief": "as §1"}, "Gal(b1-3)GalNAc(b1-3)Gal": {"target": "Gal(b1-3)GalNAc(b1-3)Gal", "method_in_brief": "as §1"}, "[7]": {"target": "Gal(b1-3)GalNAc(b1-3)Gal(a1-4)Gal(b1-4)Glc", "method_in_brief": "as §1"}, "[8]": {"target": "Gal(b1-3)GalNAc(b1-4)Gal(b1-4)Glc", "method_in_brief": "as §1"}, "[9]": {"target": "Gal(b1-3)GalNAc(b1-4)[Neu5Ac(a2-3)]Gal(b1-4)Glc", "method_in_brief": "as §1"}, "Gal(b1-3)GlcNAc": {"target": "Gal(b1-3)GlcNAc", "method_in_brief": "as §1"}, "[10]": {"target": "Gal(b1-3)GlcNAc(a1-3)Gal(b1-4)GlcNAc", "method_in_brief": "as §1"}, "[11]": {"target": "Gal(b1-3)GlcNAc(a1-6)Gal(b1-4)GlcNAc", "method_in_brief": "as §1"}, "Gal(b1-3)GlcNAc(b1-2)Man": {"target": "Gal(b1-3)GlcNAc(b1-2)Man", "method_in_brief": "as §1"}, "[12]": {"target": "Gal(b1-3)GlcNAc(b1-2)Man(a1-3)[Gal(b1-3)GlcNAc(b1-2)Man(a1-6)]Man(b1-4)GlcNAc(b1-4)GlcNAc", "method_in_brief": "as §1"}, "[13]": {"target": "Gal(b1-3)GlcNAc(b1-2)Man(a1-3)[Gal(b1-3)GlcNAc(b1-2)Man(a1-6)]Man(b1-4)GlcNAc(b1-4)[Fuc(a1-6)]GlcNAc", "method_in_brief": "as §1"}, "[14]": {"target": "Gal(b1-3)GlcNAc(b1-2)Man(a1-3)[GlcNAc(b1-4)][Gal(b1-3)GlcNAc(b1-2)Man(a1-6)]Man(b1-4)GlcNAc(b1-4)GlcNAc", "method_in_brief": "as §1"}, "[15]": {"target": "Gal(b1-3)GlcNAc(b1-2)[Gal(b1-3)GlcNAc(b1-6)]Man(a1-6)[Gal(b1-3)GlcNAc(b1-2)Man(a1-3)]Man(b1-4)GlcNAc(b1-4)GlcNAc", "method_in_brief": "as §1"}, "[16]": {"target": "Gal(b1-3)GlcNAc(b1-3)Gal(b1-3)GlcNAc", "method_in_brief": "as §1"}, "[17]": {"target": "Gal(b1-3)GlcNAc(b1-3)Gal(b1-4)Glc", "method_in_brief": "as §1"}, "[18]": {"target": "Gal(b1-3)GlcNAc(b1-3)Gal(b1-4)GlcNAc", "method_in_brief": "as §1"}, "[19]": {"target": "Gal(b1-3)GlcNAc(b1-3)Gal(b1-4)GlcNAc(b1-2)Man(a1-3)[Gal(b1-3)GlcNAc(b1-3)Gal(b1-4)GlcNAc(b1-2)Man(a1-6)]Man(b1-4)GlcNAc(b1-4)GlcNAc", "method_in_brief": "as §1"}, "[20]": {"target": "Gal(b1-3)GlcNAc(b1-3)Gal(b1-4)GlcNAc(b1-2)[Gal(b1-3)GlcNAc(b1-3)Gal(b1-4)GlcNAc(b1-6)]Man(a1-6)[Gal(b1-3)GlcNAc(b1-3)Gal(b1-4)GlcNAc(b1-2)Man(a1-3)]Man(b1-4)GlcNAc(b1-4)[Fuc(a1-6)]GlcNAc", "method_in_brief": "as §1"}, "[21]": {"target": "Gal(b1-3)GlcNAc(b1-3)Gal(b1-4)GlcNAc(b1-3)Gal(b1-4)GlcNAc(b1-2)[Gal(b1-3)GlcNAc(b1-3)Gal(b1-4)GlcNAc(b1-3)Gal(b1-4)GlcNAc(b1-6)]Man(a1-6)[Gal(b1-3)GlcNAc(b1-3)Gal(b1-4)GlcNAc(b1-3)Gal(b1-4)GlcNAc(b1-2)Man(a1-3)]Man(b1-4)GlcNAc(b1-4)[Fuc(a1-6)]GlcNAc", "method_in_brief": "as §1"}, "[22]": {"target": "Gal(b1-3)GlcNAc(b1-3)Gal(b1-4)GlcNAc(b1-6)[Gal(b1-3)GlcNAc(b1-3)]Gal(b1-4)Glc", "method_in_brief": "as §1"}, "[23]": {"target": "Gal(b1-3)GlcNAc(b1-3)Gal(b1-4)[Fuc(a1-3)]GlcNAc", "method_in_brief": "as §1"}, "[24]": {"target": "Gal(b1-3)GlcNAc(b1-3)Gal(b1-4)[Fuc(a1-3)]GlcNAc(b1-6)[Gal(b1-3)GlcNAc(b1-3)]Gal(b1-4)Glc", "method_in_brief": "as §1"}, "[25]": {"target": "Gal(b1-3)GlcNAc(b1-3)GalNAc", "method_in_brief": "as §1"}, "[26]": {"target": "Gal(b1-3)GlcNAc(b1-6)Gal(b1-4)GlcNAc", "method_in_brief": "as §1"}}, "note": "Some of the results follow.", "data": [{"binder": "Epa3 (Candida glabrata), Q6VBI8_CANGB (protein) MGSSHHHHHHSSGLVPRGSHMNDLGFSLFEKRELSSQNPFGYPIGCSPQDVAIIPGLTMELYSYPIVSGTPPNCYDASYVDPEYPRTGYLKRKMVGKSTGVTGNLNYKYSVEKACMVKYGNLPAGYNYNEPLTVSNFTMILYGYFKAQTTGLHTFFVNADDLLYINFGAGNAFDCCKREDSKTKLGEYVAYDIWHVDSSKNKVSLFLEKDLYYPIRMFFNNIGKDSSLDLSFSVNGATDQISDFSGYLYSVPDQPDTCPAHIGYDTTCR", "values": [{"measurement": "glycan array binding signal (z-score)", "setting": "Gal(a1-3)GalNAc", "result": -0.215}, {"measurement": "glycan array binding signal (z-score)", "setting": "[1]", "result": 0.057}, {"measurement": "glycan array binding signal (z-score)", "setting": "[2]", "result": 0.101}, {"measurement": "glycan array binding signal (z-score)", "setting": "Gal(a1-4)Gal(b1-4)Glc", "result": -0.049}, {"measurement": "glycan array binding signal (z-score)", "setting": "Gal(a1-4)Gal(b1-4)GlcNAc", "result": -0.044}, {"measurement": "glycan array binding signal (z-score)", "setting": "[3]", "result": 0.284}, {"measurement": "glycan array binding signal (z-score)", "setting": "[4]", "result": -0.137}, {"measurement": "glycan array binding signal (z-score)", "setting": "Gal(a1-4)GlcNAc", "result": -0.083}, {"measurement": "glycan array binding signal (z-score)", "setting": "Gal(a1-6)Glc", "result": -0.248}, {"measurement": "glycan array binding signal (z-score)", "setting": "Gal(b1-2)Gal", "result": -0.015}, {"measurement": "glycan array binding signal (z-score)", "setting": "Gal(b1-3)Gal", "result": 1.83}, {"measurement": "glycan array binding signal (z-score)", "setting": "Gal(b1-3)Gal(b1-4)GlcNAc", "result": 3.61}, {"measurement": "glycan array binding signal (z-score)", "setting": "Gal(b1-3)GalNAc", "result": 2.99}, {"measurement": "glycan array binding signal (z-score)", "setting": "[5]", "result": 3.57}, {"measurement": "glycan array binding signal (z-score)", "setting": "[6]", "result": 3.87}, {"measurement": "glycan array binding signal (z-score)", "setting": "Gal(b1-3)GalNAc(b1-3)Gal", "result": 8.62}, {"measurement": "glycan array binding signal (z-score)", "setting": "[7]", "result": 3.07}, {"measurement": "glycan array binding signal (z-score)", "setting": "[8]", "result": 17}, {"measurement": "glycan array binding signal (z-score)", "setting": "[9]", "result": 2.86}, {"measurement": "glycan array binding signal (z-score)", "setting": "Gal(b1-3)GlcNAc", "result": -0.202}, {"measurement": "glycan array binding signal (z-score)", "setting": "[10]", "result": -0.299}, {"measurement": "glycan array binding signal (z-score)", "setting": "[11]", "result": -0.36}, {"measurement": "glycan array binding signal (z-score)", "setting": "Gal(b1-3)GlcNAc(b1-2)Man", "result": 0.223}, {"measurement": "glycan array binding signal (z-score)", "setting": "[12]", "result": -0.25}, {"measurement": "glycan array binding signal (z-score)", "setting": "[13]", "result": -0.168}, {"measurement": "glycan array binding signal (z-score)", "setting": "[14]", "result": 0.016}, {"measurement": "glycan array binding signal (z-score)", "setting": "[15]", "result": -0.018}, {"measurement": "glycan array binding signal (z-score)", "setting": "[16]", "result": -0.29}, {"measurement": "glycan array binding signal (z-score)", "setting": "[17]", "result": -0.409}, {"measurement": "glycan array binding signal (z-score)", "setting": "[18]", "result": -0.316}, {"measurement": "glycan array binding signal (z-score)", "setting": "[19]", "result": -0.199}, {"measurement": "glycan array binding signal (z-score)", "setting": "[20]", "result": 0.022}, {"measurement": "glycan array binding signal (z-score)", "setting": "[21]", "result": 0.093}, {"measurement": "glycan array binding signal (z-score)", "setting": "[22]", "result": -0.13}, {"measurement": "glycan array binding signal (z-score)", "setting": "[23]", "result": 0.023}, {"measurement": "glycan array binding signal (z-score)", "setting": "[24]", "result": -0.126}, {"measurement": "glycan array binding signal (z-score)", "setting": "[25]", "result": -0.127}, {"measurement": "glycan array binding signal (z-score)", "setting": "[26]", "result": -0.269}]}]}
